Test results: PubChem BioAssay AID1347165 (National Center for Advancing Translational Sciences (NCATS), 2019)
Where “and” joins values, the source holds several entries; their conditions need not be identical. Identical values can stand only once. About 5,700 (2.6%) of roughly 220,000 compounds were called active. This list was built around the results that the source calls inconclusive (neither active nor inactive); the mix of calls is not that of the screen. Calls come from the whole dose curve; as a rule, active = well fitted inhibition curve with a large enough effect; inconclusive = small, poorly fitted or top-dose-only effect; inactive = no such curve, though single readings can be large or run the other way. Potencies of inconclusive entries are doubtful fits and often do not repeat.

Molecular target: Lysine-specific demethylase 5B (Homo sapiens) (UniProt Q9UGL1)
Experiment: Primary screen for KDM5B Histone Demethylases FDH-coupled qHTS; note: nearly all actives have a fitted effect of over 70% in size; for activity change, negative = inhibition: 0% is about no effect
Settings: FDH-coupled NADH fluorescence (FDH is formaldehyde dehydrogenase); activity change, negative = inhibition: at 57.7 µM (top of the series) unless noted
Procedure, shortened: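 KDM5BΔAP (200 nM final) in 50 mM HEPES pH 7.5, 0.01% Tween-20 was preincubated 10 min at RT with compound over a concentration range. Substrate mix (H3K4me3 12.5 µM, α-KG 25 µM, Fe²⁺, ascorbate, NAD⁺, FDH) was added, and NADH fluorescence change over 30 min gave dose-response curves.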
Potency is the fitted concentration of half-maximal effect; tags give direction and shape of the fitted curve.

Chain of UniProt Q9UGL1 (Q9UGL1 whole entry, looked up): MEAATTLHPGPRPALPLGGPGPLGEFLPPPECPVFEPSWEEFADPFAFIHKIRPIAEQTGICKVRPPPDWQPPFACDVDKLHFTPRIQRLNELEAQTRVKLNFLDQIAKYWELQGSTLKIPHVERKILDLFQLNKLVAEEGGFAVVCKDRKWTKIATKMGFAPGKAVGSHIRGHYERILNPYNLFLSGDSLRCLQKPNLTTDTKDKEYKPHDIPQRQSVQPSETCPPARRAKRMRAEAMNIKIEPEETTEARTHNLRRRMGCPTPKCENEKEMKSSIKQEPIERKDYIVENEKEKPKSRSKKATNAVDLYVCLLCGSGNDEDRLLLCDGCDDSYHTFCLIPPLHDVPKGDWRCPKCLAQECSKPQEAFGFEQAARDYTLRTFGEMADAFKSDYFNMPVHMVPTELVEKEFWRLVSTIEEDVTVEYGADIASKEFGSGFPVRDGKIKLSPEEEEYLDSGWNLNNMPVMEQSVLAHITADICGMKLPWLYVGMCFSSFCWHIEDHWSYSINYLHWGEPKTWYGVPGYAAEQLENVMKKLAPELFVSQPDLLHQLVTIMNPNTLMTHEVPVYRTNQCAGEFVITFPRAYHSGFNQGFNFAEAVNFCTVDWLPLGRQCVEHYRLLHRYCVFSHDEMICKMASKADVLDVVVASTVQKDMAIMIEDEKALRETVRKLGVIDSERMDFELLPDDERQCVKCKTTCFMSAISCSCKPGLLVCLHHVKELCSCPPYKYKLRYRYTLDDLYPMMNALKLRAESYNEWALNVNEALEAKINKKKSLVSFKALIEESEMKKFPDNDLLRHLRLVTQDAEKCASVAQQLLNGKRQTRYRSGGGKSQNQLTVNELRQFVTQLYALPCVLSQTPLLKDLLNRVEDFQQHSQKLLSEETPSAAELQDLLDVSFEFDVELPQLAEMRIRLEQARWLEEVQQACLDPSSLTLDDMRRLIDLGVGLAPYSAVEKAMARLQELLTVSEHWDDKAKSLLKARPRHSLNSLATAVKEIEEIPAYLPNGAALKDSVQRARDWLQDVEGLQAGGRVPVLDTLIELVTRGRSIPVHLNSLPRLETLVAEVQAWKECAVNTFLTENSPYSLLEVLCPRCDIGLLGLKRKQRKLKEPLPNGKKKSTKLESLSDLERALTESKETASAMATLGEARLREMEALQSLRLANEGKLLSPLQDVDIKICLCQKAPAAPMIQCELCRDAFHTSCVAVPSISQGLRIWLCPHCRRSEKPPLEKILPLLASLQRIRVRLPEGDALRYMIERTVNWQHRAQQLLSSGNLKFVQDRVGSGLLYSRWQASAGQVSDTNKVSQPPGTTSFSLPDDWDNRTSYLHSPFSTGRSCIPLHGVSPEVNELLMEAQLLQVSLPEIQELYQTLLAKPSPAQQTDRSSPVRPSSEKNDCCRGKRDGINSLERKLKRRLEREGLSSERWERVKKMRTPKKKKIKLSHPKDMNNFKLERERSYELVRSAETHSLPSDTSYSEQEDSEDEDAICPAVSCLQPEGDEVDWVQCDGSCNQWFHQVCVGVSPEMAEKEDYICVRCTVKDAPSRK

Compound | Potency | activity change, negative = inhibition
Cc1nc(C(=O)O)c(C(=O)O)nc1C | inconclusive: 1.78 µM [inhibitor, full curve, poor fit] | 
O=[S+]([O-])(Nc1cccnc1)c1ccc2c(c1)OCCN(Cc1ccc(F)cc1)C2 | inactive | 
Cc1ccc(C(=O)N2CCN(CCc3ccccc3)CC2)cc1C | inactive | 
Cc1ccc(-n2c(SCC(=O)NCc3ccccc3)nc3n[nH]c(C)c3c2=N)cc1Cl | inconclusive: 39.8 µM [inhibitor, single point] | 
COc1ccc(CNC(=O)c2cc3cn(C4CC4)cc3s2)cc1OC | inconclusive: 10 µM [inhibitor, partial curve] | 
CC1CCN(c2oc(-c3ccc(COc4ccccc4)o3)nc2C#N)CC1 | inconclusive: 28.2 µM [inhibitor, partial curve, poor fit] | 
CCNC(=O)c1ccc(OC2CCN(C(=O)c3ccnn3C)C2)nc1 (stereo not drawn) | inactive | 
O=C1N(Cc2ccccc2F)CCOC12CCN(Cc1ccccc1F)CC2 | active: 15.8 µM | 
CCc1ccc(-n2c(N3CCN(c4cccc(Cl)c4)CC3)nc3ccccc3c2=O)cc1 | inconclusive: 31.6 µM [inhibitor, partial curve, poor fit] | 
COC(=O)CNC(=O)c1nc(-c2ccc(Cl)cc2Cl)c2ccccn12 | active: 89.1 µM | 
CN(C)C(=O)N1Cc2ccccc2OC2(CCN(C(=O)c3ccnc(N)c3)CC2)C1 | active: 89.1 µM | 
O=C(O)C(c1c[nH]c2cc(OCc3ccccc3)ccc12)N1CCN(Cc2ccccc2)CC1 (stereo not drawn) | inconclusive: 39.8 µM [inhibitor, single point] | 
Cc1noc([C@@H]2CN(Cc3ccccc3OC(F)(F)F)C[C@H]2CO)n1 | inactive | 
C[S+](=O)([O-])CCn1ncc2cc(OCc3cccc(-c4ccccc4)c3)ccc21 | inconclusive: 39.8 µM [inhibitor, single point] | 
Cc1nc2ccc(Cl)cc2cc1C(=O)N1CCN(CC(=O)N2CCCCC2C)CC1 (stereo not drawn) | inactive | 
COc1ccc(C(=O)Nc2oc3ccccc3c(=O)c2-c2ccc(OC)c(OC)c2)cc1 | inactive | 
Cc1cccc(-c2nc3nc(C)cc(NCc4ccccc4Cl)n3n2)c1 | inconclusive: 1.58 µM [inhibitor, full curve, poor fit] | 
COc1ccc(-c2cc(C(F)(F)F)nc(-n3nc(C(F)(F)F)cc3C)n2)cc1 | inconclusive: 25.1 µM [inhibitor, partial curve, poor fit] | 
CC(C)NC(=O)NC[C@H]1Cn2c(-c3ccc4c(c3)OCO4)cnc2CO1 | inconclusive: 31.6 µM [inhibitor, partial curve] | 
CCN(C(=O)Cc1noc2ccccc12)c1ccc(OC)cc1 | inactive | 
CCOC(=O)c1cccc(NC(=O)c2cn(-c3cccc(OC)c3)c(=O)c3ccccc23)c1 |  | inconclusive: -35.4% [inhibitor]
Cc1cc(C)c(Cn2c3ccccc3c3cnn(CC(=O)NCc4ccccn4)c(=O)c32)c(C)c1 | inconclusive: 15.8 µM [inhibitor, partial curve, poor fit] | 

Compound | Potency | activity change, negative = inhibition
Cc1ccc2cc(CN(c3ccccc3)S(C)(=O)=O)c(=O)[nH]c2c1 | inconclusive: 14.1 µM [inhibitor, partial curve, poor fit] | 
CCN1CCN(C(=O)Cn2ncc3c4ccccc4n(Cc4ccccc4)c3c2=O)CC1 | inconclusive: 15.8 µM [inhibitor, partial curve, poor fit] | 
N#Cc1c(N)sc2c1CCc1ccccc1-2 | inconclusive: 28.2 µM [inhibitor, partial curve, poor fit] | 
Cc1nc(-n2nc(C)c(Cl)c2C)sc1C(=O)N1CCCCC1C (stereo not drawn) | inactive | 
CN(C)Cc1ccc(-c2cc3c(ccn3Cc3cccnc3)c(C3=CCOCC3)n2)cc1 | active: 35.5 µM | 
Cc1ccc(/C=C/C(=O)Nc2ccc(S(N)(=O)=O)cc2)o1 | inconclusive: 22.4 µM [inhibitor, partial curve, poor fit] | 
Nc1nnc(SCC(=O)Nc2ccccc2)s1 | inconclusive: 28.2 µM [inhibitor, partial curve, poor fit] | 
Cc1ccc(CC2C(=O)N(C)c3ccc(Br)cc32)cc1 (stereo not drawn) | inactive | 
Cc1ccc2nc(-c3c[nH]c4ccccc34)c(Nc3ccccc3C)n2c1 | inconclusive: 1.26 µM [inhibitor, full curve, poor fit] | 
Cc1ccc(C(c2ccccc2)c2c(C)[nH]c3ccccc23)s1 (stereo not drawn) | inconclusive: 7.08 µM [inhibitor, partial curve, poor fit] | 
Cc1nn2c(c1-c1ccccc1[S+](C)(=O)[O-])N(Cc1ccc(C(=O)O)s1)CCC2 | inconclusive: 39.8 µM [inhibitor, partial curve, poor fit] | 
Cc1nn(-c2ccc(F)cc2)c(-n2cccc2)c1C(=O)NCCCN1CCN(c2cccc(Cl)c2)CC1 | inconclusive: 3.16 µM [inhibitor, full curve, poor fit] | 
O=C(Cc1c[nH]c2ccccc12)Nc1cccc(CO)c1 | inactive | 
COc1cccc(CN(C)Cc2ccc(F)cc2)c1 | inactive | 
COc1ccc(-c2nc3c([nH]2)CC(C)(C)CNC3=O)cc1OC | active: 31.6 µM | 
Cc1ccc(O[C@H]2COCC[C@H]2NC(=O)c2cc(CC(C)C)nc(N)n2)cn1 | inconclusive: 22.4 µM [inhibitor, single point] | 
Cc1ccoc1-c1nc2ccncc2[nH]1 | inconclusive: 141 µM [inhibitor, partial curve, poor fit] and active: 31.6 µM | 
COc1cccc(NC(=O)Cn2c(N(C)Cc3ccccc3)nc(C)cc2=O)c1 | inconclusive: 20 µM [inhibitor, partial curve] | 
CC(NC1CCCc2c1[nH]c1ccc(-c3ccccc3)cc21)c1ccccc1 (stereo not drawn) | inconclusive: 15.8 µM [inhibitor, partial curve, poor fit] | 
COc1cccc(N2CCN(C(=O)CCC[C@H]3NC[C@@H]4C[C@H]3CN(Cc3ccccc3)C4)CC2)c1 | active: 25.1 µM | 
O=C(Cn1c(-c2ccccc2)cc2ccccc21)N1CCN(CCN2CCCC2)CC1 | inconclusive: 25.1 µM [inhibitor, partial curve, poor fit] | 
